Measurements taken from the BET-seq Pho4 binding data (Le et al. 2018).
The list shows a part of the results. The energies were worked out here from pooled read counts, against the library average; single values are noisy.

molecular target: T1, Pho4 (S. cerevisiae) (UniProt P07270); assay: relative binding free energy (BET-seq); higher = weaker binding; details: reference: library average
T1 sequence: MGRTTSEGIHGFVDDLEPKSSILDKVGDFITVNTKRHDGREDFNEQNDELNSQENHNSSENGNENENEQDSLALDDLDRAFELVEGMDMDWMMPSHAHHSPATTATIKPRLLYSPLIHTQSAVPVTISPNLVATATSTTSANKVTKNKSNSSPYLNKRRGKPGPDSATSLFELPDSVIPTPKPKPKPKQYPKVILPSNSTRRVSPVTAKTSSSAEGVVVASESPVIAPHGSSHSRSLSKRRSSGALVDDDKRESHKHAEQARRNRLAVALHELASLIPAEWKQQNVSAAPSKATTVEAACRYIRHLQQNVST

Sequence | relative binding free energy [kcal/mol]
GGTTACACGTGCTGTG | 0.22
ATTTGCACGTGAGTAC | 0.12
AGGTTCACGTGGGCGC | 0.07
GTGGTCACGTGTGCTA | 0.11
GTGTACACGTGTTGAC | 0.1
ATGATCACGTGTTGTT | 0.18
CGTTACACGTGTAAGT | 0.21
GTGGCCACGTGATATG | 0.02
TGGCTCACGTGTGCAT | 0.17
TTTACCACGTGGTAAT | 0.01
ATAGACACGTGGTTTA | -0.05
TGCGTCACGTGTTGTA | 0.09
ATGTTCACGTGTTGAC | 0.24
AGGAACACGTGGGGTT | -0.06
TTGGTCACGTGTCTCT | 0.06
GTTGGCACGTGTACGA | 0.07
TGTGTCACGTGGGGAC | 0.01
CGTGGCACGTGGGTCA | -0.19
AGTGCCACGTGGGGTA | -0.38
GAATTCACGTGAAGGT | 0.45
AATTTCACGTGGCGGG | 0.23
GGGGTCACGTGAGTTA | 0.42
AATTCCACGTGTTTGG | 0.04
GGTTTCACGTGGGATT | 0.17
AGTGGCACGTGACGAG | -0.02
TAATTCACGTGATCGT | 0.22

Sequence | relative binding free energy [kcal/mol]
TTGCTCACGTGGAAGT | 0.3
TTTGTCACGTGGTAAG | 0.05
GTTAACACGTGTTGAA | 0.26
AGGATCACGTGAGTTT | 0.42
GTAATCACGTGATTGA | 0.24
GGAATCACGTGGGGAA | 0.18
GATGTCACGTGCACGG | 0.19
GGTACCACGTGTGGGA | -0.03
GGAGGCACGTGGGGTC | -0.12
GTGAACACGTGGGATG | -0.21
AGGGTCACGTGTTCGT | 0.07
GGCATCACGTGTTTTT | 0.17
TAGCACACGTGTTGGG | 0.18
ATGAACACGTGAAGTG | 0.13
TTTTGCACGTGCAGAT | -0.17
GAGGACACGTGCGGTG | -0.04
CTTAGCACGTGGTTGG | -0.2
ACTATCACGTGAGGTG | 0.26
GGGGGCACGTGGCGTT | -0.19
AGATTCACGTGAGTGT | 0.4
AAAAGCACGTGTTAGT | -0.08
TGGTGCACGTGACGTC | 0.07
TGGGACACGTGTGCTC | 0.09
ATGAACACGTGCGTGT | -0.15
TAGTTCACGTGCTGTA | 0.32
TAGGTCACGTGAAAGT | 0.34

Sequence | relative binding free energy [kcal/mol]
ATGTCCACGTGTGTGG | -0.04
TTCCACACGTGTGGGT | 0.01
ACAGACACGTGTGGTG | -0.04
GGGGTCACGTGTAAAT | 0.3
TAGTGCACGTGTTAGA | -0.1
TTCGTCACGTGCTGGG | 0
TTTGACACGTGAGCAT | 0.26
ATCTCCACGTGGTTTT | 0.12
AGGGTCACGTGATGGT | 0.19
ATTTCCACGTGTTGAT | -0.04
TGTTGCACGTGGCAGG | -0.18
GTTTTCACGTGTGTGT | 0.38
GTGCTCACGTGCGTTT | 0.14
GGTGTCACGTGTAATG | 0.28
TTGCACACGTGCTGTT | 0.03
GGTTACACGTGAAGTG | 0.46
GGTGACACGTGCTTGC | 0.13
AGTCACACGTGTAGGG | 0.02
GGTTACACGTGAGATG | 0.33
TAGGGCACGTGACAGG | -0.12
AGGGGCACGTGAAAAG | 0.08
GGTAGCACGTGGCATT | -0.05
GGCTTCACGTGGGGTA | 0.12
TACATCACGTGGGTAT | 0.04
GGTTGCACGTGAGGAG | 0.38
TGGTGCACGTGGGTAG | -0.09

Sequence | relative binding free energy [kcal/mol]
TCTTTCACGTGCGGGG | 0.2
GTTGTCACGTGTATGG | 0.17
TAGGGCACGTGTACGA | -0.06
CGATTCACGTGTGTAA | 0.26
TATATCACGTGATTTT | 0.26
TTGTTCACGTGAGGCA | 0.31
AGAGTCACGTGCTTGT | 0.15
TGGAACACGTGATATG | 0.14
GTATGCACGTGGTTTG | -0.03
GTACTCACGTGTGGAG | 0.41
AATGCCACGTGTTGGT | -0.09
ACAGTCACGTGGGATT | 0.08
AAGCTCACGTGGAGGT | 0.35
GGAGTCACGTGAACGT | 0.39
CGGGTCACGTGTGCGT | 0.09
TATGTCACGTGTGGTT | 0.06
TGGCGCACGTGCAAGG | -0.03
GTACGCACGTGTGGTT | -0.04
AGTGACACGTGTCATG | -0.02
ACGTTCACGTGTGTTT | 0.29
TGGAGCACGTGGTCTG | -0.12
AGTTTCACGTGGACAT | 0.31
TTTTTCACGTGTTAAT | 0.24
TGGGACACGTGCGGAT | -0.12
AGGGTCACGTGTATAC | 0.05
TTAGACACGTGAATGG | 0.25

Sequence | relative binding free energy [kcal/mol]
GGGAGCACGTGTGACT | 0.07
TAAGTCACGTGTTACT | 0.23
TGTGGCACGTGGTAGC | -0.09
TGGCCCACGTGATGGT | 0
TTAATCACGTGTGTTA | 0.11
GGTTCCACGTGAGGCG | 0.27
GCGGTCACGTGGCGGT | 0.05
GGTATCACGTGTTCTG | 0.29
CGTTGCACGTGGTTAA | 0.03
CGTTACACGTGCGTGG | 0.18
AGCTGCACGTGGGCGT | -0.18
AAACTCACGTGTGGGT | 0.26
GTCCGCACGTGTGTGA | 0.12
TCGGGCACGTGGGAGG | -0.11
TTTATCACGTGGGGTT | 0.06
TTAGACACGTGTAGGC | 0.03
TTGGACACGTGGCATA | 0.11
TTCTTCACGTGGTGGA | 0.14
GTATTCACGTGGTGAT | 0.18
AGTGGCACGTGATTGA | -0.02
GTCGGCACGTGGCTTT | 0.02
TGGCTCACGTGAGGTC | 0.3
AAATTCACGTGGTGGA | 0.3
CGTTGCACGTGTCGGA | 0.11
GATTGCACGTGATGGC | 0.16
CGTAGCACGTGTTGTG | -0.22

Sequence | relative binding free energy [kcal/mol]
AATGACACGTGGTTGG | -0.15
TTAAACACGTGGAATG | -0.02
TTGGGCACGTGGGGTT | -0.11
TGCGACACGTGGCGTT | 0.02
AGATTCACGTGGGAGG | 0.16
ATTTACACGTGTAGGC | 0.13
GGCCTCACGTGGGGGT | 0.02
AATTTCACGTGACATG | 0.51
AAGTGCACGTGGAGGA | -0.19
AGGGTCACGTGCTGAT | 0.07
GGGGGCACGTGCCTAG | -0.18
GGGCTCACGTGTAGGG | 0.07
GGCAGCACGTGGGGGA | -0.24
TATTACACGTGTGAGC | 0.14
TACATCACGTGGTAGG | 0
ATCGTCACGTGGGGTC | 0.05
AAAGTCACGTGGTACG | 0.17
TGGAACACGTGAATAT | 0.33
GGGGACACGTGTTGCA | -0.01
CAAGTCACGTGGGAGT | 0.05
GACAGCACGTGAGAGG | 0.47
CTGGTCACGTGGTGCT | -0.03
ATGCTCACGTGAAATG | 0.37
AATGGCACGTGGTATT | -0.11
GTTGACACGTGGTAGC | -0.02
CTAGTCACGTGTGGGT | 0.11

Sequence | relative binding free energy [kcal/mol]
TGGGACACGTGATACT | 0.18
TGGGGCACGTGGGACT | -0.29
GTTTACACGTGGTCTT | 0.09
TGTTCCACGTGAGGTA | 0.17
TCGTGCACGTGGAGGC | -0.07
GTTTGCACGTGATTAA | 0.12
GTTATCACGTGAGGAT | 0.42
TGTAGCACGTGTTTGA | -0.09
GAATACACGTGGGCGG | -0.09
TAGGCCACGTGGGTGT | -0.35
TAGCTCACGTGTCTGT | 0.23
ACTGACACGTGGTTTG | -0.07
AATGACACGTGGAGGT | 0.05
TCGTACACGTGTGGTT | 0.17
TTCGGCACGTGTACGT | 0
GGTTACACGTGCATTG | 0.1
GGTGGCACGTGCGGCG | 0.02
GTTTTCACGTGGTTGC | 0.27
GTATGCACGTGTTTTC | 0.05
TTTTCCACGTGTGGGC | 0.08
AAATTCACGTGGGGCT | 0.05
GTTTCCACGTGATAGG | 0.18
ATTGACACGTGGGGCA | -0.25
TTGTACACGTGTGCAT | 0.02
AGTAGCACGTGTGGGT | -0.04
GGTCTCACGTGGTTTT | 0.31

Sequence | relative binding free energy [kcal/mol]
AGCTTCACGTGTTTGG | 0.12
GAAATCACGTGAGTGG | 0.32
GGGGCCACGTGTTATG | 0.07
TGGGACACGTGTGAAT | 0.08
TGTTACACGTGGCAGG | -0.04
GGTGCCACGTGGTAAT | -0.05
GTTGGCACGTGAGTCA | 0.14
TTGCTCACGTGTATTT | 0.11
TATATCACGTGTGGAT | 0.28
CTATTCACGTGGTCGT | 0.11
TGCGGCACGTGGGTAC | -0.2
CGAGTCACGTGGCGTG | 0.04
TTATGCACGTGCTTTT | -0.17
GTCAGCACGTGGTAGG | -0.09
GGATGCACGTGTTTAG | -0.06
GGAGTCACGTGTTGTT | 0.17
GGGAGCACGTGTTCGT | -0.01
AGGGACACGTGTTGCA | -0.01
TGGGCCACGTGCGGGC | -0.18
GTATTCACGTGTGAGG | 0.38
TCGTACACGTGAGGTA | 0.26
AAAAGCACGTGGGTGC | -0.19
AAGGGCACGTGTTTTT | -0.1
CTTATCACGTGGAATG | 0.14
TCTTTCACGTGAGTGT | 0.35
TCTGACACGTGGATGT | -0.04

Sequence | relative binding free energy [kcal/mol]
TTATGCACGTGTGAAT | 0.09
TTCTTCACGTGTCGGG | 0.16
TTGCACACGTGGGTAT | -0.03
ACTAGCACGTGGGTGT | -0.22
CGCGACACGTGTGGTG | 0.08
TGGAGCACGTGCTTAG | -0.17
AGGGCCACGTGATGTA | 0.16
GGTTTCACGTGGTTGC | 0.27
AGGGTCACGTGTTAGC | 0.26
GAAATCACGTGATGTT | 0.27
GTGATCACGTGCTGGT | 0.2
GGTTTCACGTGAGAAT | 0.44
CTGTACACGTGGTTTG | -0.05
AAAGGCACGTGTCTGT | -0.14
AATATCACGTGTCGGG | 0.28
ATTTTCACGTGGGGGA | 0.27
CCTTTCACGTGTAGGG | 0.14
CGGTGCACGTGTTTTT | 0.11
TGTGCCACGTGGGTCT | -0.26
CGGGCCACGTGTGTGC | -0.07
TTTAACACGTGACATG | 0.2
CCGGGCACGTGGGATG | -0.1
